# The whole screen tested about 310,000 compounds, of which about 14,000 (4.5%) showed an effect of 50% or more. Effects have a minus sign here. This is one part of the list.
# Target: human ether-à-go-go-related gene (hERG) potassium channel (human, UniProt Q12809)
# Assay: primary screen, population patch clamp on CHO cells stably expressing hERG
# 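Also: peak tail current of the secondary pulse compared with the same well before compound.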
# Chain of human ether-à-go-go-related gene (hERG) potassium channel (Q12809 whole entry, looked up): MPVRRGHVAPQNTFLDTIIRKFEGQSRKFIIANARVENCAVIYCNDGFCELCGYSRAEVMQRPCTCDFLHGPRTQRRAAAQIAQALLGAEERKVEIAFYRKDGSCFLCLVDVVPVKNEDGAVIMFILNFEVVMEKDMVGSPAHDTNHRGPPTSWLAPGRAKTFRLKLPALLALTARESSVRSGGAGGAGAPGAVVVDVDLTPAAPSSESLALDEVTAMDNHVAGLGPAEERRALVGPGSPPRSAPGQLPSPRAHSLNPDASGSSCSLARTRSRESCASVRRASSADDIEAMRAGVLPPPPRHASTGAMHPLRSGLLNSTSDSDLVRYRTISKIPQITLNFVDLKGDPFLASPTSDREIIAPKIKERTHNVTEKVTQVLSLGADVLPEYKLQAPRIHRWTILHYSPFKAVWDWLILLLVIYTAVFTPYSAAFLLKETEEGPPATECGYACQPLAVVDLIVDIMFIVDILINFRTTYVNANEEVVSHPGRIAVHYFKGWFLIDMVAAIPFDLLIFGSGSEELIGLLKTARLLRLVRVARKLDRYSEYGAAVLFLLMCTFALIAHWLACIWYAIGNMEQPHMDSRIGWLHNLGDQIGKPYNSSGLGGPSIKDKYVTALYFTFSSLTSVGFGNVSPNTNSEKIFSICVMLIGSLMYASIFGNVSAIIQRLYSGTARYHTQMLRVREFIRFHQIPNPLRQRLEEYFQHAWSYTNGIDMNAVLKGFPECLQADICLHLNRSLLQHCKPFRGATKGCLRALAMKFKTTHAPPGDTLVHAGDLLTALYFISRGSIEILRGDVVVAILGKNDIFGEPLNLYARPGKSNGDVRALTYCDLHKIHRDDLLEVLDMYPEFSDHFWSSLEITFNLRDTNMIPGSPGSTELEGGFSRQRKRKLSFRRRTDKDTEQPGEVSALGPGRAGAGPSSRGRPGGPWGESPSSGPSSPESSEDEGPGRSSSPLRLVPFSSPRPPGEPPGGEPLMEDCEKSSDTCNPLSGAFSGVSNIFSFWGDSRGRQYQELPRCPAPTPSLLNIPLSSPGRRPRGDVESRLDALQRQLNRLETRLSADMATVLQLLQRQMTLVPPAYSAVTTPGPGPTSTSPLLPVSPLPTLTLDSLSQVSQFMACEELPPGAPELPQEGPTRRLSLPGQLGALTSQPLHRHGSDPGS
row,Compound,"hERG current change (%, negative = inhibition) at 10uM [%]"
1,CCOC(=O)c1c(-c2cccc(C)c2)csc1NC(=O)C1CC=CCC1C(=O)O (centres unmarked),-20.9
2,Cc1ccc(NC(=O)Cc2nnc(SCC(=O)Nc3nncs3)n2C)c(C)c1,20.9
3,Cc1c(/C(O)=C2/C(=O)C(=O)N(CCN3CCOCC3)C2c2cccnc2)cnn1-c1ccccc1 (centres unmarked),20.9
4,Cc1ccnc(Nc2nc(-c3ccc(O)cc3)cs2)c1,20.6
5,O=C(Nc1ccccc1-c1ccccc1)C1CCCN(c2ncccn2)C1 (centres unmarked),16.9
6,O=c1[nH]c(CSc2nnc(Cc3ccccc3)o2)nc2ccccc12,-6.55
7,CC12CN(C(=S)Nc3ccccc3)CC(C)(CN(C(=S)Nc3ccccc3)C1)C2=O,10.3
8,CCC(Oc1ccccc1)C(=O)NCCOC (centres unmarked),-8.48
9,CC1CCN(C(=O)CN2C(=O)c3cccc4cccc(c34)C2=O)CC1,2.37
10,Cc1ccc(C(=O)O/N=C\c2ccc(N3CCOCC3)c([N+](=O)[O-])c2)cc1,14.2
11,CCOP(=O)(OCC)C(NC(=O)Nc1cccc(Cl)c1)C(N)=O (centres unmarked),8.47
12,COc1cc(C(c2c(C)[nH][nH]c2=O)c2c(C)[nH][nH]c2=O)ccc1OCc1ccc([N+](=O)[O-])cc1,8.76
13,CCCn1ncc2c(Nc3ccc(C)c(C)c3)ncnc21,-25.2
14,Cc1nn(C)c(C)c1S(=O)(=O)N1CCC(CO)(Cc2ccc(Cl)cc2)CC1,-3.56
15,Cc1oc(=O)c(NC(=O)c2ccccc2)cc1C(N)=O,23.3
16,COC(=O)c1cc(Br)c(=O)n(CCN(C(C)C)C(C)C)c1,-21.1
17,Cc1ccc(C(=O)COC(=O)C2C3C=CC(C3)C2C(=O)OCC(=O)c2ccc(C)c(C)c2)cc1C (centres unmarked),11.4
18,O=S(=O)(Nc1cccc2c1CCCC2)c1ccc(Cl)cc1,-9.87
19,CCOC(=O)COc1c(Cl)cc(C2NC(=S)NC(c3ccccc3)=C2C(C)=O)cc1OCC (centres unmarked),7.96

row,Compound,"hERG current change (%, negative = inhibition) at 10uM [%]"
1,CN(Cc1cccs1)C(=O)Cn1cnc2ccccc2c1=O,11.8
2,Nc1nonc1-c1noc(CCCN2C(=O)c3ccccc3C2=O)n1,-11
3,N#C/C(C(=O)N1CCOCC1)=C1\Nc2ccccc2S1,2.1
4,CSc1nsc(SCc2ccc(Cl)cc2)n1,12.9
5,N#Cc1ncc(C(F)(F)F)cc1Sc1ccc(N)cc1,-5.49
6,CC1CN(c2nc(Nc3ccccc3)nc(N)c2[N+](=O)[O-])CC(C)O1 (centres unmarked),-22.2
7,CSc1nnc(NC(=O)CCc2ccccc2)s1,-6.33
8,CCOc1ccccc1/C=N/Nc1nc2ccccc2o1,15.1
9,CCn1c(CNC(=O)c2ccc(Cl)cc2)nnc1SCC(=O)NC1=NCCS1,18
10,CCOC(=O)C1=NNC2(CC(=O)N(c3cccc(C)c3)C2=O)C1 (centres unmarked),7.7
11,O=C(NN1C(=O)/C(=C/c2cccc(O)c2)SC1=S)c1ccccc1O,2.92
12,N#CC1=C2SCN(Cc3ccco3)CN2C(=O)CC1c1cccc2ccccc12 (centres unmarked),-11.1
13,CS(=O)(=O)c1ccccc1C(=O)Nc1cc(Cl)ccc1-n1cncn1,13.4
14,NC(=O)C1CCCN(Cc2c(C(=O)N3CCc4ccccc4C3)nc3ccc(Cl)cn23)C1 (centres unmarked),-9.28
15,CCN(CC(=O)Nc1ccc(NC(C)=O)cc1)C(=O)c1cc(-c2ccccc2)nn1-c1ccccc1,8.43
16,CCc1c(C)nc(SCC(=O)NNC(=O)Cc2ccc(OC)cc2)[nH]c1=O,-13.6
17,O=C(CN1CCCC1=O)N1CCOCC1,-3.79
18,COc1ccccc1-c1cc(C(=O)NCc2ccco2)no1,4.12
19,O=C/C(=C\Nc1ccc(Cl)cn1)c1nc2ccccc2o1,9.15

row,Compound,"hERG current change (%, negative = inhibition) at 10uM [%]"
1,O=C1CC(c2ccc(F)cc2)Cc2nc(N3CCN(c4ccccc4)CC3)ncc21 (centres unmarked),1.48
2,O=C(O)C1CCCN(S(=O)(=O)c2ccc(Cl)s2)C1 (centres unmarked),4.58
3,COc1ccc(NC(=O)N2CCCC(C(=O)Nc3ccccc3OC)C2)cc1 (centres unmarked),-5.26
4,O=C(O)CSCc1nc2cccnc2n1C1CCCCC1,18.6
5,Cc1[nH]c2ccc(-c3nnc(SCC(=O)NCc4ccco4)n3Cc3ccccc3)cc2c1C,22.5
6,O=C(Cc1ccccc1F)Nc1ccc(S(=O)(=O)N2CCCCC2)cc1,-3.64
7,CN(CC(=O)Nc1ccc(F)c(F)c1F)C(=O)Cc1ccc2c(c1)OCCO2,13.1
8,O=C1OCC(c2ccccc2)=C1c1ccccc1[N+](=O)[O-],15.7
9,Cc1nnc(SCC(=O)NC(=O)Nc2ccc3c(c2)OCCO3)s1,9.61
10,O=C(Nc1cccc2ccccc12)c1ccc(Cn2cc(Cl)cn2)cc1,-7.34
11,Cc1ccc(S(=O)(=O)N2CCOCC2)cc1NC(=O)CN1CCN(C)CC1,-9.15
12,CC(C)c1ccc(NC(=O)Cc2cn(C)c3ccccc23)cc1,13.3
13,Cc1ccc(-c2nc(CS(=O)(=O)CC(=O)NCCCN3CCN(C)CC3)c(C)o2)cc1,14.7
14,O=c1[nH]cnc2c1sc1nc(-c3ccccc3)c3c(c12)CCCC3,11.4
15,Nc1nc(SCC(=O)NNc2c(Cl)cc(Cl)cc2Cl)n[nH]1,6.76
16,O=C(O)CCCN1C(=O)c2ccc(C(=O)c3cccc([N+](=O)[O-])c3)cc2C1=O,12.7
17,COc1ccc2[nH]c(=O)c(CN(C)C(=O)C3CCCCC3)cc2c1,2.21
18,O=C(COc1ccc(Cl)cc1Br)NNC(=O)C(=O)N1CCCCC1,13

# Source: PMC4336329 (PLoS ONE, 2015)
